Experimental data taken from the supplement of paper PMC7826260.
This is one part of the list. One pool of 16,384 single-stranded DNAs met each Rep nickase domain in vitro at 3 µM enzyme and 37 °C for 1 h; the strands have 90 letters, of which the middle is given. Uncut reads are compared with the no-enzyme pool on a log2 scale; the lower, the more was cut; hits are not called. The scaling is to total reads; where an enzyme cuts many sequences, the uncut ones exceed 0.

Tested on: T1, Rep nickase domain of chickpea chlorotic dwarf virus
T1 sequence (residues 1-124 of Rep, tag left off): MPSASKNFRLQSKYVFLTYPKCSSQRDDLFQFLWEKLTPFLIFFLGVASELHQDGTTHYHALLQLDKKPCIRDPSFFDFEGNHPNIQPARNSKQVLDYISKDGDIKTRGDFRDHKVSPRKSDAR
Assay: uncleaved DNA left, log2 of reads against the no-enzyme library (log2 ratio); higher = less cleavage (more negative = more Rep cleavage of the k-mer); sequences stand for … in CTCGTCCG…ACCGGAGA
Description: (§1)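 A pool of 90-nt single-stranded DNAs with seven random bases just before the constant AC of the nick site (name = the seven bases) was cut by 3 µM recombinant His6-SUMO-tagged Rep nickase domain (300 nM DNA, 50 mM HEPES pH 8.0, 50 mM NaCl, 1 mM MnCl2, 1 h, 37 °C, three replicates). Uncut DNA was amplified and sequenced.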

| Sequence | uncleaved DNA left (log2) |
| --- | --- |
| TCTGGTT | -0.308 |
| CAAGCTA | 0.585 |
| AAGATCT | -2.39 |
| CCACGGG | -0.0414 |
| CCTTACA | -2.46 |
| GCCGATT | -0.517 |
| ACGTATC | 0.0562 |
| GGGATGT | 1.97 |
| CCCAAAG | -0.112 |
| GTTTGCA | 0.348 |
| CGGCGCC | -0.032 |
| CCTAGGA | 0.426 |
| GGGTCCT | 1.74 |
| GGCCTGC | 0.809 |
| GTAAGGC | -0.968 |
| CCTCTGC | -0.959 |
| AAAGCAA | -0.102 |
| CGCCTCT | -1.58 |
| CCGTCAG | -0.309 |
| AACACAA | -0.782 |

| Sequence | uncleaved DNA left (log2) |
| --- | --- |
| AGTCCGG | 1.09 |
| AACCATG | -0.436 |
| GTAATGG | 0.838 |
| TGGCCGG | 1.21 |
| ATACATC | -0.33 |
| TTTGCCC | -0.783 |
| CTATCTT | -2.7 |
| AGTGATG | 0.528 |
| GGACACA | 1.75 |
| AGAAGAG | -0.312 |
| GAGCCAC | 0.757 |
| GCAACTA | -0.648 |
| CAAATGT | -2.49 |
| CATGGCG | 1.06 |
| ATTCACC | -0.385 |
| GACTACC | -0.548 |
| GCAGGTA | 0.586 |
| GAGCCAG | 0.353 |
| CCGATAC | -0.39 |
| GAGGTCC | 0.764 |

Tested on: T2, Rep nickase domain of faba bean necrotic yellows virus
T2 sequence (residues 1-98 of Rep, tag left off): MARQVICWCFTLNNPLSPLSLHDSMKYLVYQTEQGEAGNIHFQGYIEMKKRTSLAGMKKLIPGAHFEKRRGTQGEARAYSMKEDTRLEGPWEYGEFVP
Assay: as above
Description: as §1

| Sequence | uncleaved DNA left (log2) |
| --- | --- |
| TCTGGTT | -0.218 |
| CAAGCTA | -0.0108 |
| AAGATCT | -0.0764 |
| CCACGGG | -0.0631 |
| CCTTACA | 0.139 |
| GCCGATT | 0.148 |
| ACGTATC | 0.0756 |
| GGGATGT | -0.00619 |
| CCCAAAG | 0.0733 |
| GTTTGCA | -0.0707 |
| CGGCGCC | -0.0567 |
| CCTAGGA | -0.000787 |
| GGGTCCT | -0.0224 |
| GGCCTGC | 0.0935 |
| GTAAGGC | -0.0551 |
| CCTCTGC | -0.132 |
| AAAGCAA | -0.0161 |
| CGCCTCT | -0.0787 |
| CCGTCAG | 0.0817 |
| AACACAA | 0.00222 |

| Sequence | uncleaved DNA left (log2) |
| --- | --- |
| AGTCCGG | -0.0521 |
| AACCATG | 0.096 |
| GTAATGG | -0.0926 |
| TGGCCGG | 0.125 |
| ATACATC | 0.00107 |
| TTTGCCC | 0.00652 |
| CTATCTT | 0.0242 |
| AGTGATG | -0.106 |
| GGACACA | -0.0846 |
| AGAAGAG | 0.0118 |
| GAGCCAC | -0.0437 |
| GCAACTA | 0.0872 |
| CAAATGT | -0.0497 |
| CATGGCG | -0.0321 |
| ATTCACC | -0.0538 |
| GACTACC | -0.0909 |
| GCAGGTA | -0.0348 |
| GAGCCAG | 0.0699 |
| CCGATAC | -0.078 |
| GAGGTCC | -0.0816 |

Tested on: T3, Rep nickase domain of maize striate mosaic virus
T3 sequence (residues 1-117 of Rep, tag left off): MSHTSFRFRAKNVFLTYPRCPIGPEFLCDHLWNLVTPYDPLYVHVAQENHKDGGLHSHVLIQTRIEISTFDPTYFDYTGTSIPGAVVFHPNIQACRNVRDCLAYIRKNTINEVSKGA
Assay: as above
Description: as §1

| Sequence | uncleaved DNA left (log2) |
| --- | --- |
| TCTGGTT | 1 |
| CAAGCTA | 1.12 |
| AAGATCT | 0.224 |
| CCACGGG | -0.656 |
| CCTTACA | -0.525 |
| GCCGATT | 0.185 |
| ACGTATC | -0.499 |
| GGGATGT | 2.25 |
| CCCAAAG | -1.07 |
| GTTTGCA | 0.307 |
| CGGCGCC | -0.13 |
| CCTAGGA | -0.29 |
| GGGTCCT | 2.16 |
| GGCCTGC | 1.38 |
| GTAAGGC | 0.598 |
| CCTCTGC | -1.23 |
| AAAGCAA | -0.343 |
| CGCCTCT | -0.237 |
| CCGTCAG | -0.819 |
| AACACAA | -0.789 |

| Sequence | uncleaved DNA left (log2) |
| --- | --- |
| AGTCCGG | 1.24 |
| AACCATG | -1.01 |
| GTAATGG | 0.735 |
| TGGCCGG | 1.61 |
| ATACATC | -0.951 |
| TTTGCCC | -1.1 |
| CTATCTT | -0.973 |
| AGTGATG | 1.57 |
| GGACACA | 2.2 |
| AGAAGAG | -0.846 |
| GAGCCAC | 0.794 |
| GCAACTA | 0.11 |
| CAAATGT | -1.26 |
| CATGGCG | 0.565 |
| ATTCACC | -0.65 |
| GACTACC | 0.728 |
| GCAGGTA | 0.638 |
| GAGCCAG | -0.00312 |
| CCGATAC | -0.768 |
| GAGGTCC | 1.34 |

Tested on: T4, Rep nickase domain of porcine circovirus 2
T4 sequence (residues 2-116 of Rep, tag left off): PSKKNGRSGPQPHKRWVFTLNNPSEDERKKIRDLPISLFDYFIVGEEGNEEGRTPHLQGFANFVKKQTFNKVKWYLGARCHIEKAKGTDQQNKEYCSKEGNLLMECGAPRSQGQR
Assay: as above
Description: as §1

| Sequence | uncleaved DNA left (log2) |
| --- | --- |
| TCTGGTT | -0.236 |
| CAAGCTA | -0.0192 |
| AAGATCT | -3.56 |
| CCACGGG | 0.119 |
| CCTTACA | -0.036 |
| GCCGATT | -0.335 |
| ACGTATC | 0.123 |
| GGGATGT | 0.19 |
| CCCAAAG | 0.228 |
| GTTTGCA | 0.12 |
| CGGCGCC | 0.0371 |
| CCTAGGA | 0.0483 |
| GGGTCCT | -0.211 |
| GGCCTGC | 0.129 |
| GTAAGGC | 0.164 |
| CCTCTGC | -0.1 |
| AAAGCAA | 0.00568 |
| CGCCTCT | -0.322 |
| CCGTCAG | 0.18 |
| AACACAA | -0.00863 |

| Sequence | uncleaved DNA left (log2) |
| --- | --- |
| AGTCCGG | 0.085 |
| AACCATG | -0.00615 |
| GTAATGG | 0.0845 |
| TGGCCGG | 0.134 |
| ATACATC | 0.152 |
| TTTGCCC | -0.181 |
| CTATCTT | -2.92 |
| AGTGATG | 0.107 |
| GGACACA | 0.102 |
| AGAAGAG | 0.276 |
| GAGCCAC | 0.0227 |
| GCAACTA | -0.0532 |
| CAAATGT | -0.228 |
| CATGGCG | 0.123 |
| ATTCACC | -0.196 |
| GACTACC | -0.623 |
| GCAGGTA | 0.0321 |
| GAGCCAG | 0.108 |
| CCGATAC | 0.0631 |
| GAGGTCC | -0.169 |

Tested on: T5, Rep nickase domain of tomato golden mosaic virus
T5 sequence (residues 1-124 of Rep, tag left off): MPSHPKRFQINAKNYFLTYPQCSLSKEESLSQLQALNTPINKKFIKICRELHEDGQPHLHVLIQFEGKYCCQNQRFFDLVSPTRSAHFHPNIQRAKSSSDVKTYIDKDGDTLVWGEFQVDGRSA
Assay: as above
Description: as §1

| Sequence | uncleaved DNA left (log2) |
| --- | --- |
| TCTGGTT | -0.0347 |
| CAAGCTA | -0.122 |
| AAGATCT | -0.0445 |
| CCACGGG | -0.0172 |
| CCTTACA | 0.166 |
| GCCGATT | -0.0664 |
| ACGTATC | 0.187 |
| GGGATGT | -0.0277 |
| CCCAAAG | 0.0733 |
| GTTTGCA | 0.0138 |
| CGGCGCC | -0.0486 |
| CCTAGGA | 0.103 |
| GGGTCCT | 0.00926 |
| GGCCTGC | 0.0624 |
| GTAAGGC | -0.0597 |
| CCTCTGC | -0.31 |
| AAAGCAA | 0.0816 |
| CGCCTCT | -0.176 |
| CCGTCAG | 0.0509 |
| AACACAA | -0.11 |

| Sequence | uncleaved DNA left (log2) |
| --- | --- |
| AGTCCGG | 0.0916 |
| AACCATG | 0.0563 |
| GTAATGG | 0.0428 |
| TGGCCGG | 0.111 |
| ATACATC | -0.00566 |
| TTTGCCC | -0.135 |
| CTATCTT | -0.781 |
| AGTGATG | 0.009 |
| GGACACA | 0.00804 |
| AGAAGAG | 0.0794 |
| GAGCCAC | -0.0782 |
| GCAACTA | 0.0579 |
| CAAATGT | -0.194 |
| CATGGCG | -0.00312 |
| ATTCACC | 0.0986 |
| GACTACC | 0.0239 |
| GCAGGTA | 0.0389 |
| GAGCCAG | 0.0672 |
| CCGATAC | -0.0289 |
| GAGGTCC | -0.00938 |
